# Several values for one entry are separate records, joined by “and”; a condition that tells them apart may be missing. Equal values may be shown once. The source holds several records for some structures; these can differ, active in one and inactive in another. Activity calls are given as the source filed them. Unless noted, the call rests on the fitted dose curve; in most records, active means well fitted curve in the direction sought with a large enough effect in the repeat runs; inconclusive means weak or mixed curves; inactive means no such curve, though single readings can be large; an effect the other way counts as inactive or inconclusive.
# How the values were obtained:
# [1] = qHTS assay to identify small molecule antagonists of the androgen receptor (AR) signaling pathway using the MDA cell line - cell viability counter screen (AID 743041; further: nearly all actives have a fitted effect of over 45% in size); settings: MDA-kb2 viability, CellTiter-Fluor, 16 h, cells co-treated with R1881 androgen agonist; viability change, negative = cytotoxic: at 70.3 µM (top of the series) unless noted
# Outline: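 MDA-kb2 AR-luc cells (MMTV-luciferase, AR/GR responsive) treated with compounds plus R1881 agonist for 16 h at 37C. CellTiter-Fluor added at 15.5 h; fluorescence read after 30 min in the same wells.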
# [2] = qHTS assay to identify small molecule antagonists of the thyroid receptor (TR) signaling pathway - cell viability counter screen (AID 743064); settings: GH3.TRE-Luc viability, CellTiter-Fluor, 24 h; activity change, negative = cytotoxic: at 70.3 µM (top of the series); further: nearly all actives have a fitted effect of over 50% in size; on activity change, negative = cytotoxic: on the % scale 0 is the no-effect control and ±100 the full control effect
# Outline: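 Same-well viability check: GH3.TRE-Luc cells stimulated with 1 nM T3 alongside test compound for 23.5 h, followed by CellTiter-Fluor fluorescence.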
# [3] = qHTS assay to identify small molecule antagonists of the estrogen receptor alpha (ER-alpha) signaling pathway - cell viability counter screen (AID 743074; calls by dose curve;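 further: HEK293 cells carrying ER-alpha-UAS-bla reporter stimulated with 17beta-estradiol; nearly all actives have a fitted effect of over 45% in size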)
# [4] = qHTS assay to identify small molecule antagonists of the estrogen receptor alpha (ER-alpha) signaling pathway using the BG1 cell line - cell viability counter screen (AID 743081);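 further: compound given together with 17beta-estradiol as the ER stimulus; nearly all actives have a fitted effect of over 45% in size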
# [5] = qHTS assay to identify aromatase inhibitors - cell viability counter screen (AID 743084);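 further: cells stimulated with testosterone during compound exposure; nearly all actives have a fitted effect of over 55% in size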
# [6] = biological target: Aryl hydrocarbon receptor (Homo sapiens) (UniProt P35869); test: qHTS assay to identify small molecule that activate the aryl hydrocarbon receptor (AhR) signaling pathway (AID 743085); further: nearly all actives have a fitted effect of over 15% in size;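 on activation: HG2L7.5c1 human HepG2 liver cells with stably integrated DRE-driven firefly reporter; on the % scale 0 is the no-effect control and ±100 the full control effect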
# Outline: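 Reporter assay in engineered HepG2 line HG2L7.5c1, whose plasmid carries twenty dioxin responsive elements upstream of firefly luciferase. Treatment lasted 24 h at 37C; ONE-Glo luminescence gauged induction.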
# [7] = biological target: Peroxisome proliferator-activated receptor gamma (Homo sapiens) (UniProt P37231); test: qHTS assay to identify small molecule antagonists of the peroxisome proliferator-activated receptor gamma (PPARg) signaling pathway (AID 743191; calls by dose curve; further: nearly all actives have a fitted effect of over 30% in size; on ratio activity, negative = inhibition: on the % scale 0 is the no-effect control and ±100 the full control effect); settings: HEK293H PPARg-UAS-bla, beta-lactamase ratio, antagonist, 17 h; ratio activity, negative = inhibition: at 62.6 µM (top of the series) unless noted
# Outline: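 GeneBLAzer PPARg UAS-bla HEK293H cells, 5 h post-plating, exposed to compounds 17 h at 37C. LiveBLAzer B/G FRET substrate added for 1 h at room temperature; beta-lactamase reporter read by fluorescence intensity.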
# [8] = system: thyroid hormone receptor (rat, GH3 cells); test: qHTS assay to identify small molecule agonists of the thyroid receptor (TR) signaling pathway (AID 743066; calls by dose curve); settings: GH3.TRE-Luc cells, TR agonist luciferase, 24 h; activation: at 83.9 µM (top of the series) unless noted
# [9] = biological target: Estrogen receptor (Homo sapiens) (UniProt P03372); test: qHTS assay to identify small molecule antagonists of the estrogen receptor alpha (ER-alpha) signaling pathway (AID 743069; active means well fitted curve in the direction sought with a large enough effect in the signal ratio in the repeat runs, not every such curve was filed as active; inconclusive means weak or mixed curves, or effect the other way; inactive means no such curve, though single readings can be large or run the other way; the % refers to the signal ratio); settings: HEK293 ER-alpha-UAS-bla, beta-lactamase ratio, antagonist mode; activity, negative = inhibition: at 69.4 µM (top of the series)
# Outline: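 HEK293 ER-alpha-UAS-bla GripTite cells, held overnight in 2% charcoal-stripped FBS, 5,000 cells/well, preincubated 4 h, then compound plus 17beta-estradiol for 18 h at 37C. Beta-lactamase read by LiveBLAzer B/G FRET substrate, 2 h at room temperature.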
# [10] = biological target: Estrogen receptor (Homo sapiens) (UniProt P03372); test: qHTS assay to identify small molecule agonists of the estrogen receptor alpha (ER-alpha) signaling pathway using the BG1 cell line (AID 743079); settings: BG1Luc4E2 cells, ERE-luciferase agonist, 22 h; activation: at 70.3 µM (top of the series) unless noted; further: nearly all actives have a fitted effect of over 20% in size
# [11] = qHTS assay to identify small molecule antagonists of the estrogen receptor alpha (ER-alpha) signaling pathway using the BG1 cell line (AID 743080; calls by dose curve; further: nearly all actives have a fitted effect of over 25% in size); settings: BG1Luc4E2 ERE-luciferase antagonist mode, luminescence; activity change, negative = inhibition: at 70.3 µM (top of the series) unless noted
# Outline: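 Antagonist mode: compounds in DMSO were pinned onto BG1-Luc-4E2 cells alongside 17beta-estradiol agonist, incubated 21.5 h, and ERE-driven luciferase measured with ONE-Glo. Cytotoxicity was multiplexed using CellTiter-Fluor fluorescence.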
# [12] = qHTS assay to identify small molecule that activate the aryl hydrocarbon receptor (AhR) signaling pathway - cell viability counter screen (AID 743086); further: nearly all actives have a fitted effect of over 45% in size
# Outline: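 HepG2-AhR-luc (HG2L7.5c1) cells, 4000/well, treated 24 h at 37 C with compound; viability measured as CellTiter-Fluor fluorescence after 30 min in the same wells as the luciferase read.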
# [13] = biological target: Peroxisome proliferator-activated receptor gamma (Homo sapiens) (UniProt P37231); test: qHTS assay to identify small molecule agonists of the peroxisome proliferator-activated receptor gamma (PPARg) signaling pathway (AID 743094; active means well fitted activation curve with a large enough effect in the signal ratio in the repeat runs, not every such curve was filed as active; inconclusive means weak or mixed curves, or effect the other way; inactive means no such curve, though single readings can be large or run the other way; the % refers to the signal ratio; on activation: on the % scale 0 is the no-effect control and ±100 the full control effect); settings: HEK293H PPARg-UAS-bla, beta-lactamase FRET ratio, 17 h; activation: at 57 µM (top of the series) unless noted
# Outline: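 Stably transfected HEK293H cells (GeneBLAzer PPARg UAS-bla) were incubated with test substances for 17 h at 37C after a 5 h pre-incubation; beta-lactamase activity was then detected by FRET substrate fluorescence.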
# [14] = qHTS assay to identify small molecule antagonists of the thyroid receptor (TR) signaling pathway (AID 743065); further: nearly all actives have a fitted effect of over 55% in size
# Outline: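 GH3.TRE-Luc rat pituitary cells (two TREs driving luciferase) were dosed with compound, then stimulated with 1 nM T3 (final) for 23.5 h at 37 C. ONE-Glo luminescence was the read-out, with CellTiter-Fluor fluorescence as the cytotoxicity counter-screen.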
# Aromatase (Homo sapiens) = Aromatase (Homo sapiens) (UniProt P11511); test: qHTS assay to identify aromatase inhibitors (AID 743083); further: nearly all actives have a fitted effect of over 55% in size
# [15] = biological target: Estrogen receptor (Homo sapiens) (UniProt P03372); test: qHTS assay to identify small molecule agonists of the estrogen receptor alpha (ER-alpha) signaling pathway (AID 743075; calls by dose curve); settings: HEK293 ER-alpha-UAS-bla, beta-lactamase FRET ratio, 18 h; activation: at 70.1 µM (top of the series)
# Potency means the concentration at half of the fitted maximal effect; tags describe the fitted curve by direction and shape or compound fluorescence and quenching.
# Sequence of UniProt P03372 (P03372 whole entry, looked up): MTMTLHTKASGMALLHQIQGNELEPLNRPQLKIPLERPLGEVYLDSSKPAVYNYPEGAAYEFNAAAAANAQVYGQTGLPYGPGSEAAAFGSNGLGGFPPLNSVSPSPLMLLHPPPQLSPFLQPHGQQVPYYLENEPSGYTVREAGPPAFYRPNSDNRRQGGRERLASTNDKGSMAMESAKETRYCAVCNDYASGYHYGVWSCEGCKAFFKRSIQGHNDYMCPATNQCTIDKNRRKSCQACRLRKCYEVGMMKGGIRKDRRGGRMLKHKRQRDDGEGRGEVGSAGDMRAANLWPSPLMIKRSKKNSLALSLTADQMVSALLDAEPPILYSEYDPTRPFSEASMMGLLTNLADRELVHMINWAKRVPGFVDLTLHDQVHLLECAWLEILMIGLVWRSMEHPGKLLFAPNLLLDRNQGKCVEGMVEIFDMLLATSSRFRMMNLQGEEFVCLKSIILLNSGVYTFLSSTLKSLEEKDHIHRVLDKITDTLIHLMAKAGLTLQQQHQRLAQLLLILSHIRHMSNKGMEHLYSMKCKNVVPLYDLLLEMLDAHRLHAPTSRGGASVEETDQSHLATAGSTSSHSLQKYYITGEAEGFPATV
# Sequence of UniProt P37231 (P37231 whole entry, looked up): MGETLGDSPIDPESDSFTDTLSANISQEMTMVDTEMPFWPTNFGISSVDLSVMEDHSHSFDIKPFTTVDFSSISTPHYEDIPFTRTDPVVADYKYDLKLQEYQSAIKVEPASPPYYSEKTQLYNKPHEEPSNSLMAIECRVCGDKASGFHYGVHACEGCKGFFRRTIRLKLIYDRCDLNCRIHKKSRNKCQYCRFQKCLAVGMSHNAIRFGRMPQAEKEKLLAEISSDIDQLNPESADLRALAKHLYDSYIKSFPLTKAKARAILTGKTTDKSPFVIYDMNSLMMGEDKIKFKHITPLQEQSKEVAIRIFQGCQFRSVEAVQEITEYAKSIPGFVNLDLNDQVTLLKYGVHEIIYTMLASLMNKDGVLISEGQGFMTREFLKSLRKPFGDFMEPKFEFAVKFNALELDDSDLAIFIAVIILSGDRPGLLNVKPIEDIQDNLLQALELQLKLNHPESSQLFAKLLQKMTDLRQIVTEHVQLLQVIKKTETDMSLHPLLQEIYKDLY
# Sequence of UniProt P11511 (P11511 whole entry, looked up): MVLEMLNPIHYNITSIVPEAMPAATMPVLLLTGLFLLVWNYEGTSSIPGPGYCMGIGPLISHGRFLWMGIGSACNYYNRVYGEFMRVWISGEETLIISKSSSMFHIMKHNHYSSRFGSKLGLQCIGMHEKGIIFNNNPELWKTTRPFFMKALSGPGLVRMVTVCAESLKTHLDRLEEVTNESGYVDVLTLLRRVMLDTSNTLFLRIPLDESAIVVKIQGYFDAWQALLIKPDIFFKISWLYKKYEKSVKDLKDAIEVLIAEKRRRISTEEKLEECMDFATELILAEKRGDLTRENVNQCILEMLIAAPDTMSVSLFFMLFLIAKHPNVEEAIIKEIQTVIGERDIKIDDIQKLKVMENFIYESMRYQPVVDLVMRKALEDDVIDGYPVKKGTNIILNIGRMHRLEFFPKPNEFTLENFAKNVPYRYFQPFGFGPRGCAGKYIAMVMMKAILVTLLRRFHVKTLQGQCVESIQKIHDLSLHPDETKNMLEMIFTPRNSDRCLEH
# Sequence of UniProt P35869 (P35869 whole entry, looked up): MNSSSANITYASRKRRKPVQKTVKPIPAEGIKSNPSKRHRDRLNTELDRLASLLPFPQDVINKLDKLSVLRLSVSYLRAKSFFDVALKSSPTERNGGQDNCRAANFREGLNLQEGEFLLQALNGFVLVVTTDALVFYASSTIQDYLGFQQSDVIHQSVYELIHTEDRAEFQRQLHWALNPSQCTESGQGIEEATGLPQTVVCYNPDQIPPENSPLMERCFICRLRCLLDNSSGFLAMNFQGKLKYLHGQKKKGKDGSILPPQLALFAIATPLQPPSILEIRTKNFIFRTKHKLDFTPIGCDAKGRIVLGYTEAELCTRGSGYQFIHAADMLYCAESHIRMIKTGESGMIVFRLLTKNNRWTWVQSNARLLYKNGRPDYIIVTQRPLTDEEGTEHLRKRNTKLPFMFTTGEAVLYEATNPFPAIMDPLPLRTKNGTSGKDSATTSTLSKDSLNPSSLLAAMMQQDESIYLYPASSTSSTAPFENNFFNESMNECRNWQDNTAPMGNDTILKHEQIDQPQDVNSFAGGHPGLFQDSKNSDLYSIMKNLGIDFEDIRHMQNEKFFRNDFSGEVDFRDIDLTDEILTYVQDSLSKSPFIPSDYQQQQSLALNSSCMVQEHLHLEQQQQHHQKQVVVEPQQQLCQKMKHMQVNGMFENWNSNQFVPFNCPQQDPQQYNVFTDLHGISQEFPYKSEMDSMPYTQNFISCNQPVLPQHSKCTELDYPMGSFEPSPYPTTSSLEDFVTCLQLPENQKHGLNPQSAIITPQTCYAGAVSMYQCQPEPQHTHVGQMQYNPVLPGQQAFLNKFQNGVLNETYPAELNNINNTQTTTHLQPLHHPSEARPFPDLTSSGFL
structure (smiles),measurement,setting,value
CCCCOC(=O)c1ccccc1C(=O)OCc1ccccc1,Potency,[1],"inconclusive: 24.3 µM [rising, full curve]"
same,Potency,[2],inconclusive: 4.33 µM
same,Potency,[3],"inconclusive: 8.71 µM [rising, full curve, poor fit]"
same,Potency,[4],"inconclusive: 13.7 µM [cytotoxic, partial curve]"
same,Potency,[5],inactive
same,Potency,[6],"inconclusive: 43.3 µM [activator, partial curve, poor fit]"
same,Potency,[7],"inconclusive: 17.3 µM [inhibitor, partial curve] and inconclusive: 49 µM"
COC12CC[C@@]3(C[C@@H]1C(C)(O)C(C)(C)C)[C@H]1Cc4ccc(O)c5c4[C@@]3(CCN1CC1CC1)[C@H]2O5 (some centres not stated),Potency,[1],active: 60.7 µM
same,Potency,[8],"inconclusive: 17.1 µM [inhibitor, partial curve, poor fit]"
same,Potency,[9],active: 13.7 µM [inconclusive]
same,Potency,[3],"inconclusive: 54.6 µM [cytotoxic, single point]"
same,Potency,[10],"inconclusive: 17.1 µM [inhibitor, partial curve]"
same,Potency,[11],"inconclusive: 60.7 µM [falling, partial curve]"
same,Potency,[12],active: 60.7 µM
same,Potency,[13],inconclusive: 54.6 µM [cytotoxic]
same,"ratio activity, negative = inhibition",[7],inconclusive: 8.03% [at 81.1 µM]
CCCCCCCCCCCCCCCCn1cc[n+](C)c1,Potency,[1],"inconclusive: 15.7 µM [cytotoxic, partial curve]"
same,Potency,[8],"inconclusive: 6.24 µM [inhibitor, partial curve, poor fit] and inconclusive: 4.9 µM [inhibitor, partial curve, poor fit] and inconclusive: 2.44 µM [inhibitor, partial curve, poor fit]"
same,Potency,[4],active: 49 µM and active: 27.4 µM
same,Potency,[6],inactive
same,Potency,[12],"inconclusive: 69.2 µM [falling, single point]"
CCCCCCCCCCCCBr,Potency,[1],"inconclusive: 30.6 µM [cytotoxic, partial curve, poor fit]"
same,Potency,[14],"inconclusive: 68.6 µM [inhibitor, single point]"
same,Potency,[3],"inconclusive: 54.9 µM [cytotoxic, single point]"
same,Potency,Aromatase (Homo sapiens),"inconclusive: 61.1 µM [inhibitor, partial curve]"
same,activation,[13],inconclusive: 3.57%
same,Potency,[7],inactive
O=C1C(Cl)=C(Cl)C(=O)c2ccccc21,Potency,[1],"inconclusive: 21.8 µM [cytotoxic, partial curve]"
same,Potency,[3],active: 43.8 µM and active: 54.9 µM
same,Potency,[15],"inconclusive: 3.9 µM [fluorescent, full curve] and inconclusive: 49 µM [activator]"
same,Potency,[10],"inconclusive: 54.6 µM [inhibitor, partial curve] and inconclusive: 6.11 µM [inhibitor]"
same,Potency,[11],active: 30.7 µM and active: 54.5 µM
same,Potency,[4],"inconclusive: 9.72 µM [rising, partial curve]"
same,Potency,[13],"inconclusive: 5.51 µM [fluorescent, full curve]"
same,activation,[13],inconclusive: 0.306%
c1ccc2c(c1)cc1ccc3cccc4ccc2c1c34,Potency,[1],"inconclusive: 11.1 µM [rising, partial curve]"
same,Potency,[2],"inconclusive: 31.2 µM [rising, partial curve, poor fit]"
same,Potency,[4],"inconclusive: 19.7 µM [rising, partial curve]"
same,Potency,[5],"inconclusive: 35 µM [rising, partial curve]"
same,Potency,[13],"inconclusive: 49.9 µM [fluorescent, partial curve]"
CCCCC/C=C\C/C=C\C/C=C\C/C=C\CCCC(=O)NCC(=O)O,"activity change, negative = cytotoxic",[2],inactive: 12.7% [at 8.44 µM]
CC(C)(C)CC(C)(C)c1ccc(O)cc1,Potency,[1],"inconclusive: 26.6 µM [cytotoxic, partial curve, poor fit] and inconclusive: 43.3 µM [cytotoxic, partial curve]"
same,Potency,[8],inconclusive: 21.7 µM [inhibitor]
same,activation,[8],inconclusive: -9.58% [phenotype inactive]
same,Potency,[3],"inconclusive: 23.9 µM [cytotoxic, partial curve, poor fit] and active: 43.6 µM"
same,Potency,Aromatase (Homo sapiens),"inconclusive: 26.6 µM [inhibitor, partial curve] and inconclusive: 43.3 µM [inhibitor, partial curve]"
same,Potency,[5],active: 30.6 µM
O=C(Nc1ccc2[nH]ccc2c1)c1cc2cc(F)ccc2n1Cc1cccc(F)c1,Potency,[1],"inconclusive: 68.6 µM [cytotoxic, single point]"
same,Potency,[8],"inconclusive: 9.69 µM [inhibitor, partial curve, poor fit]"
same,Potency,[9],inactive
same,Potency,[15],"inconclusive: 27.5 µM [falling, partial curve]"
same,Potency,[10],"inconclusive: 34.4 µM [inhibitor, single point]"
same,Potency,[11],"inconclusive: 77 µM [falling, single point]"
same,Potency,Aromatase (Homo sapiens),"inconclusive: 68.6 µM [inhibitor, single point]"
same,Potency,[5],"inconclusive: 68.6 µM [cytotoxic, single point]"
same,Potency,[13],"inconclusive: 27.5 µM [cytotoxic, partial curve]"
same,Potency,[7],"inconclusive: 9.77 µM [inhibitor, partial curve, poor fit]"
CCCCCCCC[N+](C)(CCCCCCCC)CCCCCCCC,Potency,[1],active: 17.2 µM and active: 2.73 µM and active: 15.4 µM
same,Potency,[14],"inconclusive: 2.16 µM [inhibitor, full curve, poor fit]"
same,Potency,[8],"inconclusive: 2.43 µM [inhibitor, partial curve, poor fit] and inconclusive: 1.22 µM [inhibitor, partial curve, poor fit]"
same,Potency,[9],"inconclusive: 24.5 µM [cytotoxic, full curve] and inconclusive: 3.47 µM [fluorescent, full curve] and inconclusive: 34.7 µM [cytotoxic, partial curve]"
same,Potency,[3],active: 7.75 µM and active: 27.6 µM and active: 8.71 µM
same,Potency,[15],"inconclusive: 19.5 µM [cytotoxic, full curve] and inconclusive: 55 µM and inconclusive: 30.9 µM [cytotoxic, partial curve]"
same,Potency,[10],"inconclusive: 8.62 µM [inhibitor, full curve] and inconclusive: 3.86 µM [inhibitor, full curve] and inconclusive: 9.69 µM [inhibitor, full curve]"
same,Potency,[11],"inconclusive: 5.45 µM [falling, full curve] and inconclusive: 13.7 µM [falling, full curve]"
same,"activity change, negative = inhibition",[11],inconclusive: -7.51%
same,Potency,[4],inactive and active: 13.7 µM and active: 27.3 µM
same,Potency,[12],active: 24.3 µM
same,Potency,[7],"inconclusive: 17.3 µM [cytotoxic, full curve] and inconclusive: 19.5 µM [cytotoxic, full curve]"
same,"ratio activity, negative = inhibition",[7],inconclusive: -70.2%
CN1CCc2cc3c(cc2C1O)OCO3 (configuration not stated),Potency,[1],"inconclusive: 54.8 µM [rising, partial curve]"
same,Potency,[2],"inconclusive: 48.9 µM [rising, partial curve]"
same,Potency,[4],"inconclusive: 30.8 µM [rising, partial curve]"
same,Potency,[5],"inconclusive: 54.8 µM [rising, partial curve]"
same,Potency,[12],"inconclusive: 54.8 µM [rising, partial curve]"
same,Potency,[13],"inconclusive: 12.4 µM [fluorescent, partial curve, poor fit]"
same,Potency,[7],"inconclusive: 62 µM [fluorescent, partial curve, poor fit]"
CC(C)(C)c1ccc(OP(=O)(Oc2ccccc2)Oc2ccccc2)cc1,Potency,[1],"inconclusive: 17.3 µM [rising, full curve]"
same,Potency,[9],inconclusive: 39.1 µM [fluorescent]
same,Potency,[10],"inconclusive: 17.3 µM [activator, partial curve, poor fit]"
same,Potency,[11],inactive
same,Potency,[7],inconclusive: 22 µM [full curve]
CN(C)CCc1c[nH]c2ccccc12,Potency,[2],inactive
CC(=O)/C=C/c1ccccc1,Potency,[2],inactive
Oc1ccc(C2(c3ccc(O)cc3)c3ccccc3-c3ccccc32)cc1,Potency,[1],"inconclusive: 77 µM [cytotoxic, single point]"
same,Potency,[9],"inconclusive: 61.6 µM [cytotoxic, single point]"
same,Potency,[3],"inconclusive: 54.9 µM [cytotoxic, single point]"
same,Potency,[15],"inconclusive: 34.7 µM [falling, partial curve]"
same,Potency,[10],"inconclusive: 0.611 µM [inhibitor, full curve]"
same,Potency,[11],"inconclusive: 0.969 µM [rising, full curve, poor fit]"
same,Potency,[4],"inconclusive: 6.11 µM [cytotoxic, partial curve]"
same,Potency,Aromatase (Homo sapiens),"inconclusive: 77 µM [inhibitor, single point]"
same,Potency,[5],"inconclusive: 68.6 µM [cytotoxic, single point]"
same,Potency,[13],inconclusive: 54.9 µM [partial curve]
same,Potency,[7],"inconclusive: 61.6 µM [cytotoxic, single point]"
Cc1cc(SCc2sc(-c3ccc(C(F)(F)F)c(F)c3)nc2C)ccc1OCC(=O)O,Potency,[1],"inconclusive: 68.6 µM [cytotoxic, partial curve, poor fit]"
same,Potency,[2],inconclusive: 68.6 µM [cytotoxic]
same,Potency,[3],"inconclusive: 54.9 µM [cytotoxic, single point]"
same,Potency,Aromatase (Homo sapiens),"inconclusive: 30.6 µM [inhibitor, partial curve, poor fit]"
same,Potency,[5],"inconclusive: 61.1 µM [cytotoxic, partial curve, poor fit]"
same,Potency,[13],active: 2.45 µM
same,Potency,[7],inconclusive: 21.9 µM

# — PubChem BioAssay (Tox21)
